Results on 1 substance are retold here after publication PMC6140323.

Chains of the proteins cited; added tags and fusions are not shown.
UniProt P42858: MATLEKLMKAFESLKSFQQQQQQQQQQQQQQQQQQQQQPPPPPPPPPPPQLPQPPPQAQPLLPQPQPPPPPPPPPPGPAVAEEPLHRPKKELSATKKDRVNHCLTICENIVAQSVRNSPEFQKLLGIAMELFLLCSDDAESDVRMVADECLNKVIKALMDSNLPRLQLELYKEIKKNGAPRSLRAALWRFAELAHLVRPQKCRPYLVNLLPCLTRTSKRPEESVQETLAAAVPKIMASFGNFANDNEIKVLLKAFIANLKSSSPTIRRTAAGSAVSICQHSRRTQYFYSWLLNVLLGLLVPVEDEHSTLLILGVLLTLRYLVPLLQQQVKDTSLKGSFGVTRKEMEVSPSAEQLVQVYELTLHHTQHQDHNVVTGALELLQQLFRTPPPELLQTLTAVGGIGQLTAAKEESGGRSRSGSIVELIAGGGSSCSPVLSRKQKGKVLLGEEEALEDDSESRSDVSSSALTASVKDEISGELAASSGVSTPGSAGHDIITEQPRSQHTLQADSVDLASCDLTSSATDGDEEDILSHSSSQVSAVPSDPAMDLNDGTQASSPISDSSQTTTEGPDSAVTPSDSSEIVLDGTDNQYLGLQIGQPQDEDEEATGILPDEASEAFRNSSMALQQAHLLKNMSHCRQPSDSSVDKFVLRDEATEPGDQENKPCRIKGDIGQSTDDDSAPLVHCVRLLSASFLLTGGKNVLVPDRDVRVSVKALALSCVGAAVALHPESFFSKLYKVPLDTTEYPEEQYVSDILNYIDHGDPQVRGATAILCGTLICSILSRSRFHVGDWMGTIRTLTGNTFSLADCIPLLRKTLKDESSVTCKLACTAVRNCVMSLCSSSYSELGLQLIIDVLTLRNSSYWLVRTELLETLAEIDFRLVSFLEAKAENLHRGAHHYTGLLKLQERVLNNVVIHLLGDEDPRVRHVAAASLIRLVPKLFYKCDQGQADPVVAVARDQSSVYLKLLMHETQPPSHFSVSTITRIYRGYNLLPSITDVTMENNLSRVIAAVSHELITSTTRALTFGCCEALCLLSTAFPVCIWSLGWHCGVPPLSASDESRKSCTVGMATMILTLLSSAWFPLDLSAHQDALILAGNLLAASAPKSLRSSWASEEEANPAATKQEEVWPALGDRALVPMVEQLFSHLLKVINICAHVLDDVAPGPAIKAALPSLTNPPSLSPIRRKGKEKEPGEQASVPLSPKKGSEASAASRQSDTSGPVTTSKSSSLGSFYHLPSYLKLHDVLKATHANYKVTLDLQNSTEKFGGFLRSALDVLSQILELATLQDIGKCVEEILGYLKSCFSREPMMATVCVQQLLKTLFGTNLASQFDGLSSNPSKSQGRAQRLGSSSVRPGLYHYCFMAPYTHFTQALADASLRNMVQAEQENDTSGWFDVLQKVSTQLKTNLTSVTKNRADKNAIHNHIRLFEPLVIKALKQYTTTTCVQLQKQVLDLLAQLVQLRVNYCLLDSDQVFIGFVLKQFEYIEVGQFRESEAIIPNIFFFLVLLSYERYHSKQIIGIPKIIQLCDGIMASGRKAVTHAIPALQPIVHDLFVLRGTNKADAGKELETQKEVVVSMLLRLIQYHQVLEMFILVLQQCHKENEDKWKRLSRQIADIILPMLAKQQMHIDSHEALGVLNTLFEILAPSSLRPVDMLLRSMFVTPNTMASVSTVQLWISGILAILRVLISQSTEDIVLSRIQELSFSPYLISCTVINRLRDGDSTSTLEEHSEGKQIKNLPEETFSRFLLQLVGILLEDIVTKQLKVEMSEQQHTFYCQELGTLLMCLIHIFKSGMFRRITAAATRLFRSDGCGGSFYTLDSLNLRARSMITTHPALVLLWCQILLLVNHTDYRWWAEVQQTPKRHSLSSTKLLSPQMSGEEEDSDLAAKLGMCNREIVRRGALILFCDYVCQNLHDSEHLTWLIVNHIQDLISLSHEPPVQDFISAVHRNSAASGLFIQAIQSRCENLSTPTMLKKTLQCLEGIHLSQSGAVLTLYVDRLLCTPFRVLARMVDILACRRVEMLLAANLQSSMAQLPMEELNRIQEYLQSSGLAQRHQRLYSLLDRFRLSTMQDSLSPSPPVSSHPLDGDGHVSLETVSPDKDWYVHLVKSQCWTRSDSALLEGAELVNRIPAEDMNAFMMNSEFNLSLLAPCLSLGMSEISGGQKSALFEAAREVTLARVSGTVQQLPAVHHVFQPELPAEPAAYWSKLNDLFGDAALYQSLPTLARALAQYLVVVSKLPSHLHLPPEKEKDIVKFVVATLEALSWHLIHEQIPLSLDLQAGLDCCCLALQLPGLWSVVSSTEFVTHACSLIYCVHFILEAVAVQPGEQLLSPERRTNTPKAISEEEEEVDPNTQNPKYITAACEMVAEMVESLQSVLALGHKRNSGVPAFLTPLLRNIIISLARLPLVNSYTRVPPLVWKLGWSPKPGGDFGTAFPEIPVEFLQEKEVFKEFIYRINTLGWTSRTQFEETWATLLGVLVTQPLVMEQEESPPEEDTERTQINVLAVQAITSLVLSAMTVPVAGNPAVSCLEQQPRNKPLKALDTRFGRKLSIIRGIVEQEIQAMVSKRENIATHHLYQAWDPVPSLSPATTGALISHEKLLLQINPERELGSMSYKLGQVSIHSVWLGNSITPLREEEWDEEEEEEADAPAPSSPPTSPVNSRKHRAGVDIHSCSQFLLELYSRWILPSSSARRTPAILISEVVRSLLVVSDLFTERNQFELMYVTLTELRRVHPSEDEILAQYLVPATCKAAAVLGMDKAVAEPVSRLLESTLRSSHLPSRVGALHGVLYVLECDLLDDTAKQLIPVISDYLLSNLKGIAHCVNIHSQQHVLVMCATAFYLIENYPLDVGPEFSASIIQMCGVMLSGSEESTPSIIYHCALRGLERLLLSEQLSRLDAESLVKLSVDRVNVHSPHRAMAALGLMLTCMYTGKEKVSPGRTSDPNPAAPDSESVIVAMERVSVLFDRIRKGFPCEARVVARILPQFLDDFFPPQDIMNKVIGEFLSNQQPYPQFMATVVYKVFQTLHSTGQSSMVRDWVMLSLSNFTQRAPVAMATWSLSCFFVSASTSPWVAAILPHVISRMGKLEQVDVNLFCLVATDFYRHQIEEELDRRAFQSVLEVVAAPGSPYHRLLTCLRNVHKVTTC

Substitutions are numbered along the chain they refer to. No constants are given. Whether binding was seen depends on the method and setting. Binding seen in cells or lysates may run through a third protein. Some entries that bind do so weakly or less than the wild type. Where a sequence is shown, tags or fusion partners need not be part of it.

What all share (assay): co-IP; GFP-nanotrap precipitation of GFP-tagged constructs from transiently transfected HEK293-T lysates (50 mM Tris-HCl pH 7.4, 0.5% NP40), 1 h at 4°C; western blot for endogenous Htt and septins
The target of experiment [1] is T1, GFP-SNX21 (N-terminal GFP-tagged full-length human sorting nexin-21) (human) (UniProt Q969T3).
T1 sequence: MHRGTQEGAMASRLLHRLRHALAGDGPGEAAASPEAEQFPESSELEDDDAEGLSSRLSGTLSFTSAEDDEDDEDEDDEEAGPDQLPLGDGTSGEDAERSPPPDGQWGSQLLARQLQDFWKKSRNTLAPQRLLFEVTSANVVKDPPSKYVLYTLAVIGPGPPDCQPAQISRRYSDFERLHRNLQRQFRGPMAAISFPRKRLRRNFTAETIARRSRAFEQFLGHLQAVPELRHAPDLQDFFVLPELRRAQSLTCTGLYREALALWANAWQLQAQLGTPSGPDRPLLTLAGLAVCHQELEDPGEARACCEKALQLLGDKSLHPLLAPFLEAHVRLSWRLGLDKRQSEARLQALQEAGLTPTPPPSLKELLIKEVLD

Experiment [2] concerns the target T2, GFP-SNX21 PX (residues 129-240) (human) (UniProt Q969T3).
T2 sequence: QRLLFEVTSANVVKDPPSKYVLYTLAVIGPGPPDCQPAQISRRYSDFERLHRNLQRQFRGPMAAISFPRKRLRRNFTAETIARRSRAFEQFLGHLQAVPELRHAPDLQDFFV

Experiment [3] addresses T3, GFP-SNX21(1-129) (human) (UniProt Q969T3).
T3 sequence: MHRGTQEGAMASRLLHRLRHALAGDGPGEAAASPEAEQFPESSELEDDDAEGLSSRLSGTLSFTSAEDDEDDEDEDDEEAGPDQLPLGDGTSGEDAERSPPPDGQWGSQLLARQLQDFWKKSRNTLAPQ

The target of experiment [4] is T4, GFP-SNX21(D48K) (human) (UniProt Q969T3).
T4 sequence: T1 sequence with D48K

Experiment [5] deals with T5, GFP-SNX21(D48K, D68K) (human) (UniProt Q969T3).
T5 sequence: T1 sequence with D48K, D68K

Experiment [6] addresses T6, GFP-SNX21(K364E) (human) (UniProt Q969T3).
T6 sequence: T1 sequence with K364E

Experiment [7] addresses T7, GFP-SNX21PX/PXB (residues 129-373) (human) (UniProt Q969T3).
T7 sequence: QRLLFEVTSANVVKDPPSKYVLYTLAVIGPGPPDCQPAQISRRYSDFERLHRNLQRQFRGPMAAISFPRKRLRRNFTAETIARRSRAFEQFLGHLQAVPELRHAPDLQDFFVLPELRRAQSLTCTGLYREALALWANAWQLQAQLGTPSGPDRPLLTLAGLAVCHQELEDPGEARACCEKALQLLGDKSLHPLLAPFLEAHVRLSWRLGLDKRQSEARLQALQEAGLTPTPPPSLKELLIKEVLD

On to “huntingtin (Htt), endogenous (from UniProt P42858 1-3142)”, for which the binding result is “binds” in experiment [1]; “no binding” in experiment [2]; “binds” in experiment [3]; “binds” in experiment [4]; “binds” in experiment [5]; “binds” in experiment [6]. Besides, in experiment [7], the binding result was “no binding”.
